From the supplement of paper PMC3334620
The full ranking holds about 33,000 sequences; the median of “E-score (-0.5 to 0.5)” is about -0.054, and the highest 2% start at about 0.35. The list shows a part of the results.

The sequences below were run against T1, Stb5 (UniProt P38699) (assay: PBM E-score (8-mer binding enrichment) (E-score (-0.5 to 0.5)); higher = stronger / more preferred TF binding; most listed sequences are background and not binding sites). Conditions: protein concentration: 200 nM; construct: GST-full length.
T1 sequence: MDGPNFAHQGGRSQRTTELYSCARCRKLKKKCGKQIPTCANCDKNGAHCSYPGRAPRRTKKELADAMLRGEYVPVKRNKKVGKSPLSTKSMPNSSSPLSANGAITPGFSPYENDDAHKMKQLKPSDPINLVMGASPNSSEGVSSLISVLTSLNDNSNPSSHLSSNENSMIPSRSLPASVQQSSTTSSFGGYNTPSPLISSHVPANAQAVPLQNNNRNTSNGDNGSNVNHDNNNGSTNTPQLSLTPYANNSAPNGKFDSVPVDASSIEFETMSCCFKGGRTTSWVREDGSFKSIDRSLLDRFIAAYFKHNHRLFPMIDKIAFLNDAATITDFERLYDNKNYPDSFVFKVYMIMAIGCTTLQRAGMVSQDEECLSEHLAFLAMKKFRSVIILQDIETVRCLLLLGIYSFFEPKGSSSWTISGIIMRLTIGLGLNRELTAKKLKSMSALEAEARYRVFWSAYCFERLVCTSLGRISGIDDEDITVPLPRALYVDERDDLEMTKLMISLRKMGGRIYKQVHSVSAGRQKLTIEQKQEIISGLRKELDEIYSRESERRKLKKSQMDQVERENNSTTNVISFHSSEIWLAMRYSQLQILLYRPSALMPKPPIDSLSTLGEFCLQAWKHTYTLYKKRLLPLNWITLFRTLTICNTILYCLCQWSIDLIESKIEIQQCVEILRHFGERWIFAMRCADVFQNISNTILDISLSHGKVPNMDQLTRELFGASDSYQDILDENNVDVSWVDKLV
In short: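 Universal all-10-mer Agilent arrays, double-stranded by primer extension on fresh or once-stripped slides, were probed with about 100-200 nM GST-tagged yeast transcription factors made by PURExpress. Fluorescent anti-GST detected bound protein, and masliner normalised the scans. E-scores from the Universal PBM Analysis Suite were given to each ungapped eight-base word pooled with its reverse complement.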

Sequence	PBM E-score
ATGCCCAT	-0.348
CGAAGACC	0.0719
CTTTGAGC	-0.102
AGTCGCCA	-0.117
CTCTTAAG	0.035
ATCCCCGG	0.379
CGCAAAAC	0.15
ACTGCACT	-0.244
CACGAATG	-0.143
CTTGAGAC	0.141
CATGACCG	0.0934
AGACCTCT	-0.194
ACGCCTTC	-0.142
ATAGGTAA	-0.117
AGTTAATA	0.0563
AGACAGCT	-0.365
CTCACCGC	0.164
GCACCCGC	0.193
CGAATCGC	-0.00885
AGGGTGAT	-0.298
ACGCTCAC	-0.0611
GTCAGATA	-0.0727
GATACAGC	-0.0161
CTGATTGC	-0.0848
TCTTAAGA	0.0359

Sequence	PBM E-score
CTCGGAGA	0.136
ATATCTAA	-0.197
AAATCGGG	0.212
CTCCAATC	0.0155
ATATTGTC	0.132
CAGACACG	-0.0377
GCCCAACC	-0.196
AACGTGTG	-0.338
ATGCTAAG	-0.0748
AAGAGCCT	-0.249
CTATGGGA	-0.0168
AAGTGCCC	0.0216
ACCTTTCA	-0.118
ACGCGGCG	0.304
GACGATCC	0.00367
GTCCTAGA	-0.078
TGACGTCA	0.158
AAACCATG	-0.102
ATCATAGC	-0.0226
AGAACAGC	0.0171
GAACTACC	0.0225
CTAATCTA	0.0861
CTGCTGAC	-0.189
GAACACGC	0.0746
AATAATGG	0.00766

Sequence	PBM E-score
TAACTAGA	0.04
CAATCACG	-0.027
TGTAAGAA	0.0991
ATAAACAG	0.00266
CGGTTATC	0.175
GGTAGATA	0.0311
AACCCGCT	0.222
ACTGAATA	-0.137
CGAGGTAA	-0.0124
TCCGGCAA	0.258
CTTAGGTA	-0.0714
AACGACTA	-0.107
AGAGACCA	-0.325
ATGATACA	-0.296
AAATACTT	-0.0954
GGCGTAAC	0.136
ACATACGC	0.0346
ACGCACTC	0.00586
AGTAGCAT	-0.127
AAACTTGA	-0.106
AAGACTCA	-0.283
AGTTGCAA	0.0517
GCCCCCCA	-0.279
ATGCTGCA	-0.108
ACTTTTCT	-0.119

Sequence	PBM E-score
GCTACAGC	-0.13
ACTGCCGA	0.242
CACACAAC	-0.151
AAACAGTT	-0.00596
GATTGGCC	-0.0793
ATCCGTTA	0.197
AGTAATCA	-0.045
AGGATGCA	-0.138
GAACGCAC	0.0172
ACGTCCTA	-0.154
CAAAGACA	-0.129
TATTCGGA	0.0697
CGACCGAC	0.271
TGGGCGAA	-0.132
GAACCGGA	0.302
ATATCCGG	0.294
CCTGGTTA	-0.327
ACAAATTG	-0.183
TCTCAGCA	-0.253
GTACGCGA	-0.24
GCTATCAC	-0.00176
TGGCCACA	-0.243
GGACCTGA	0.0125
AAAGCTAA	-0.114
ATGCAGGG	-0.207

Sequence	PBM E-score
AGGTCCGC	0.425
CGATCGCA	0.0733
CGCTGGGC	0.106
ACAAATAA	0.141
CCACTCGC	-0.0357
TACGCACA	-0.373
CAGTCGGG	0.297
GCAATTAA	0.189
AAGGAGAG	-0.239
CAAACATA	-0.269
ACGTGATC	0.0619
ATGTTCGG	0.0516
AGACCAAA	-0.13
CTATACTA	-0.0625
CTTCGTAC	-0.00604
ACCTAACT	-0.0158
AGGTGAAC	-0.145
GAATCCGA	0.209
GATGTGGA	0.0512
CTACAAAC	-0.0193
GACCCCCA	-0.201
CCTCAACG	-0.0978
ATCATTCC	-0.0558
CTAGCCAG	-0.248
CAGCATTA	-0.0945

Sequence	PBM E-score
AAGCACAA	-0.232
AATCTCGC	-0.121
AACTTTTG	-0.174
GGCTATAC	0.133
ACCTTTTG	-0.00107
CGGAAACG	0.00282
AGTGAGGG	-0.2
CTCCAGTC	-0.0994
ACGGCATA	0.0909
ATCCACTC	-0.227
TCGAGCCA	-0.261
AACAGTTG	-0.0985
ATTAGCGC	0.0864
ACCCGCCT	0.062
AAACGTAG	-0.145
AAGGACTC	-0.0704
CGCAGGAC	0.1
CATATATG	-0.101
TAGGCTGA	-0.123
AAAAGTTG	-0.143
TAGGGCCA	-0.283
CAAACTCA	-0.054
ACCGTCAG	0.103
CGCCAATC	-0.114
CCCACTCG	-0.131

Sequence	PBM E-score
ATTAGTTC	0.0669
ACCTTTCC	0.0877
CGAGGGGC	-0.0727
ACTAGCGG	0.256
GGTGAAGA	0.0224
ATCGGACG	0.305
CAAGGAAA	-0.063
TAGAGTCA	-0.126
ATGCTCCC	-0.0728
GTTTTCCA	-0.0296
GGCCCTGA	-0.0333
TATGTTAA	0.00658
CGCGACTA	0.184
CGCTCTAA	0.0643
GACGAGAC	-0.0829
AATGTCAT	-0.0614
AAAAGACT	0.00221
TACTTGGA	-0.149
ATACAGCA	-0.00496
CAGCCGGG	0.00439
GTGACGGA	0.272
CGTATTAC	0.188
